The campaign covered roughly 360,000 compounds. About 25,000 (6.9%) were called active. Inconclusive means that the source gave no clear call. Such entries were picked first, then a sample of the others. Calls come from the whole dose curve; as a rule, active = well fitted inhibition curve with a large enough effect; inconclusive = small, poorly fitted or top-dose-only effect; inactive = flat fitted curve, though single readings scatter. Potencies beside an inconclusive call are fits to weak or partial responses and may not hold up.
molecular target: Luciferin 4-monooxygenase (Photinus pyralis) (UniProt P08659); experiment: qHTS profiling assay for firefly luciferase inhibitor/activator using purifed enzyme and Km concentrations of substrates (counterscreen for miR-21 project); conditions: purified FLuc, luminescence inhibition; series mostly up to 57.5 µM; note: nearly all actives have a fitted effect of over 55% in size
UniProt P08659, sequence (P08659 whole entry, looked up): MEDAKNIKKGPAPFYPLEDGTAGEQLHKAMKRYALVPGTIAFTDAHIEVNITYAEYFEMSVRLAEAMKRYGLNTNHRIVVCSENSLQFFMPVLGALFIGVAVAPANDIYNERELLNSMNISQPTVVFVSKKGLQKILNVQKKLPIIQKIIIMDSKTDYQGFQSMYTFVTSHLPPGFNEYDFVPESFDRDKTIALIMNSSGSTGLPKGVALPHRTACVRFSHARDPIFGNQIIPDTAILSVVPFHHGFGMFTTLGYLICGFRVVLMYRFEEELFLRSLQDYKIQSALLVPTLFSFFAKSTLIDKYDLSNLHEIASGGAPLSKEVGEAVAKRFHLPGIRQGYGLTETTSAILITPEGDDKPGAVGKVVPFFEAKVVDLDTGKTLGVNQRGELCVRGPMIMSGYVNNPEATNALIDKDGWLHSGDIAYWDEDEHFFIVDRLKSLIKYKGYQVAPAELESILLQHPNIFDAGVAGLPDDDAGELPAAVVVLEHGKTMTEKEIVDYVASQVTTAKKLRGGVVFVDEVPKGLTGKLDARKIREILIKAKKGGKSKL
Outline: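 Biochemical qHTS of compounds, final roughly 60 µM downward over six points, against 10 nM purified firefly luciferase using Km concentrations of substrates (10 uM D-luciferin, 10 uM ATP) in Tris acetate pH 7.5 buffer; luminescence output.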
Potency is the fitted concentration of half-maximal effect; tags give direction and shape of the fitted curve.

Compound | Potency
Cc1ccc2cc3c(NC(=O)c4ccco4)nn(C)c3nc2c1 | inconclusive: 26.9 µM [inhibitor, single point]
Cc1cc(C(=O)OCC(=O)N2c3ccccc3CC2C)c(C)o1 (stereo not given) | inconclusive: 16.9 µM [inhibitor, partial curve, poor fit]
COc1cccc(C(=O)Nc2cccc(-c3nnc(-c4ccco4)o3)c2)c1 | active: 19 µM
CCOc1ccc(NC(=O)CSc2ccc(-c3ccccn3)nn2)cc1 | inactive
CN(C)c1ccc(C=C2C(=O)OC(C)(C(C)(C)C)OC2=O)cc1 (stereo not given) | active: 9.53 µM
Cn1c(=O)[nH]c(=O)c2c1nc(N1CCN(c3ccccc3)CC1)n2CCSc1ncccn1 | inactive
Cc1cccc(N2CCN(C(=O)c3ccc(Cl)c(S(=O)(=O)NCc4ccco4)c3)CC2)c1C | inactive
CCCCNC(=O)CSc1nc2ccc(NC(=O)CSc3nnc(N)s3)cc2s1 | inconclusive: 42.6 µM [inhibitor, partial curve, poor fit]
COc1ccc(/C(N)=N/OC(=O)c2ccc(Br)o2)cc1 | active: 6.01 µM
COc1cc(/C=C/c2ccc3cccc(O)c3n2)cc(OC)c1OC | inconclusive: 7.57 µM [inhibitor, partial curve, poor fit]
Cc1nn(-c2ccccc2)c2c1N(CCCC(=O)NC(C)c1ccccc1)C(=O)CS2 (stereo not given) | inactive
CN(C)CCCN=c1cc(-c2ccccc2)oc2ccc(Cl)cc12 | inconclusive: 23.9 µM [inhibitor, single point]
COc1cccc(NC(=S)N(CCc2c(C)[nH]c3ccccc23)Cc2ccco2)c1 | inconclusive: 37.9 µM [inhibitor, partial curve, poor fit]
CCOC(=O)c1c(C)nc2c(c1C)c(=O)oc1ccccc12 | active: 16.9 µM
O=C(NC(=S)Nc1ccc2ncccc2c1)c1ccccc1 | inconclusive: 2.69 µM [inhibitor, full curve]
COC(=O)[C@H](Cc1c[nH]c2ccccc12)NC(=O)NCc1ccc(OC)cc1 | inconclusive: 21.3 µM [inhibitor, single point]
O=C(NC(=S)NNC(=O)c1ccc(Cl)cc1Cl)c1cccnc1 | inconclusive: 6.01 µM [inhibitor, partial curve, poor fit]
O=C(COc1ccccc1Cl)NC(=S)N1CCc2ccccc21 | inconclusive: 26.9 µM [inhibitor, partial curve, poor fit]
CCCCNc1c(-c2cccc(-c3ccc(OC)cc3)c2)nc2ccc(C)cn12 | active: 9.53 µM
CCOc1ccc(CNC(=O)Cn2c(=O)c3cccn3c3cccnc32)cc1 | inactive
Oc1ccc(N2CCN(c3ncnc4sc5c(c34)CCC5)CC2)cc1 | inconclusive: 26.9 µM [inhibitor, partial curve, poor fit]
Nc1c(Cl)ncnc1N/N=C/c1ccnc2ccccc12 | inconclusive: 2.39 µM [inhibitor, full curve, poor fit]
CN1C(=O)c2cccc(NCCCCCCN3C(=O)c4ccccc4C3=O)c2C1=O | inactive

Compound | Potency
COc1ccc(Cc2noc(CN3CCN(Cc4cccc(Cl)c4)CC3)n2)cc1OC | inactive
O=C(Nc1cccc(-c2cnc3ccccc3n2)c1)C1CC(=O)N(c2ccccc2)C1 (stereo not given) | inconclusive: 21.3 µM [inhibitor, single point]
Cc1cccc(NC(=O)c2ccc(C(=O)c3ccccc3)cc2)n1 | active: 9.53 µM
CC(=O)Cn1ncc(Br)c(Br)c1=O | inactive
Cc1ccccc1-c1nc(Cc2ccc(Cl)cc2)no1 | inconclusive: 15.1 µM [inhibitor, partial curve]
S=C(N/N=C/c1ccc2c(c1)OCO2)NC1CC2CCC1C2 (stereo not given) | inconclusive: 19 µM [inhibitor, partial curve, poor fit]
CCN1CCN(C(=O)c2cc3ccc(OC)cc3[nH]2)CC1 | inconclusive: 37.9 µM [inhibitor, single point]
C/C(=N\NC(=O)C1CC1)c1ccc(C(C)(C)C)cc1 | inconclusive: 16.9 µM [inhibitor, partial curve, poor fit]
CSc1nc2[nH]c3c(c2c2nnnn12)CCCC3 | inconclusive: 23.9 µM [inhibitor, partial curve, poor fit]
Cc1cc2ccccn2c1C(=O)c1ccc(Cl)cc1 | inconclusive: 19 µM [inhibitor, partial curve, poor fit]
Cn1c(=NC(=O)C2=NNC(=O)CC2)sc2ccccc21 | inconclusive: 37.9 µM [inhibitor, single point]
O=c1c2oc3ccccc3c2ncn1Cc1ccccc1Cl | inconclusive: 26.9 µM [inhibitor, single point]
CCc1cc2c(=O)nc3n(c2s1)Cc1ccccc1/C3=C(/O)c1cccc([N+](=O)[O-])c1 | inconclusive: 15.1 µM [inhibitor, partial curve]
Cc1csc(NC(=O)Nc2ccc(Cl)cc2)n1 | inconclusive: 4.26 µM [inhibitor, full curve]
Cc1nc(NC(C)c2ccccc2)c2c3c(sc2n1)CCC3 (stereo not given) | inactive
NC(=O)c1nsc(C(=O)N(CC(=O)NC2CCCCC2)Cc2ccc(F)cc2)c1N | inconclusive: 33.8 µM [inhibitor, partial curve, poor fit]
CC(C)c1ccc(NC(=O)COC(=O)CCC(=O)c2cccs2)cc1 | inconclusive: 21.3 µM [inhibitor, partial curve, poor fit]
COC(=O)c1ccc(-n2nnnc2SCC(=O)Nc2cc(OC)ccc2OC)cc1 | inactive
Cn1c(SCC(=O)c2ccccc2)nc2cccnc21 | inactive
O=C(c1cc2c(=O)n3ccccc3nc2s1)N1CCc2ccccc2C1 | inconclusive: 19 µM [inhibitor, single point]
O=C(COc1ccccc1Cl)NC(=O)NC1CCCCC1 | inconclusive: 16.9 µM [inhibitor, partial curve]
Cc1nnc(SCC(=O)Nc2ccc(N3CCOCC3)cc2)n1-c1ccccc1 | inconclusive: 37.9 µM [inhibitor, partial curve, poor fit]
